This note sets out measurements from publication PMC9911399, “Two distinct binding modes provide the RNA-binding protein RbFox with extraordinary sequence specificity”.

T1: RBFOX1 RRM (Homo sapiens, UniProt Q9NWB1 109-208)
T1 sequence: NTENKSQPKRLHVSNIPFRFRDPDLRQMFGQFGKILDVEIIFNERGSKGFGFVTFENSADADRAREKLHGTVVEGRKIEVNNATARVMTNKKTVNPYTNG

B1: GGACGCC (DNA:RNA)
RNA: GGGAGACCGGAAUUCAGAUUGUCCGGACGCCUUAAAUCCCGUCGUAGCCACCA
DNA 1: CAATCTGAATTCCGGTCTCCC
DNA 2: TGGTGGCTACGACGGGATT
B2: GUCGAAA (DNA:RNA)
RNA: B1 RNA with G26U, A27C, C28G, G29A, C30A, C31A
DNA 1: CAATCTGAATTCCGGTCTCCC
DNA 2: TGGTGGCTACGACGGGATT
B3: CGCCGAU (DNA:RNA)
RNA: B1 RNA with G25C, A27C, C30A, C31U
DNA 1: CAATCTGAATTCCGGTCTCCC
DNA 2: TGGTGGCTACGACGGGATT
B4: GUGAGCC (DNA:RNA)
RNA: B1 RNA with G26U, A27G, C28A
DNA 1: CAATCTGAATTCCGGTCTCCC
DNA 2: TGGTGGCTACGACGGGATT
B5: UGGCUCA (DNA:RNA)
RNA: B1 RNA with G25U, A27G, G29U, C31A
DNA 1: CAATCTGAATTCCGGTCTCCC
DNA 2: TGGTGGCTACGACGGGATT
B6: AACAAAA (DNA:RNA)
RNA: GGGAGACCGGAAUUCAGAUUGUCCAACAAAAUUAAAUCCCGUCGUAGCCACCA
DNA 1: CAATCTGAATTCCGGTCTCCC
DNA 2: TGGTGGCTACGACGGGATT
B7: CUGCAAA (DNA:RNA)
RNA: B6 RNA with A25C, A26U, C27G, A28C
DNA 1: CAATCTGAATTCCGGTCTCCC
DNA 2: TGGTGGCTACGACGGGATT
B8: GUAACGG (DNA:RNA)
RNA: B1 RNA with G26U, C28A, G29C, C30G, C31G
DNA 1: CAATCTGAATTCCGGTCTCCC
DNA 2: TGGTGGCTACGACGGGATT
B9: GUAUCGA (DNA:RNA)
RNA: B1 RNA with G26U, C28U, G29C, C30G, C31A
DNA 1: CAATCTGAATTCCGGTCTCCC
DNA 2: TGGTGGCTACGACGGGATT
B10: CUGCAUA (DNA:RNA)
RNA: B6 RNA with A25C, A26U, C27G, A28C, A30U
DNA 1: CAATCTGAATTCCGGTCTCCC
DNA 2: TGGTGGCTACGACGGGATT
B11: AUUGACC (DNA:RNA)
RNA: B6 RNA with A26U, C27U, A28G, A30C, A31C
DNA 1: CAATCTGAATTCCGGTCTCCC
DNA 2: TGGTGGCTACGACGGGATT
B12: GUACCUC (DNA:RNA)
RNA: B1 RNA with G26U, G29C, C30U
DNA 1: CAATCTGAATTCCGGTCTCCC
DNA 2: TGGTGGCTACGACGGGATT
B13: CACGCCU (DNA:RNA)
RNA: B6 RNA with A25C, A28G, A29C, A30C, A31U
DNA 1: CAATCTGAATTCCGGTCTCCC
DNA 2: TGGTGGCTACGACGGGATT
B14: AACAAUC (DNA:RNA)
RNA: B6 RNA with A30U, A31C
DNA 1: CAATCTGAATTCCGGTCTCCC
DNA 2: TGGTGGCTACGACGGGATT
B15: UCCAUUG (DNA:RNA)
RNA: B6 RNA with A25U, A26C, A29U, A30U, A31G
DNA 1: CAATCTGAATTCCGGTCTCCC
DNA 2: TGGTGGCTACGACGGGATT
B16: CCCCUUG (DNA:RNA)
RNA: B6 RNA with A25C, A26C, A28C, A29U, A30U, A31G
DNA 1: CAATCTGAATTCCGGTCTCCC
DNA 2: TGGTGGCTACGACGGGATT
B17: AUGCUGU (DNA:RNA)
RNA: B6 RNA with A26U, C27G, A28C, A29U, A30G, A31U
DNA 1: CAATCTGAATTCCGGTCTCCC
DNA 2: TGGTGGCTACGACGGGATT
B18: UAUACGG (DNA:RNA)
RNA: B6 RNA with A25U, C27U, A29C, A30G, A31G
DNA 1: CAATCTGAATTCCGGTCTCCC
DNA 2: TGGTGGCTACGACGGGATT
B19: ACCUAUG (DNA:RNA)
RNA: B6 RNA with A26C, A28U, A30U, A31G
DNA 1: CAATCTGAATTCCGGTCTCCC
DNA 2: TGGTGGCTACGACGGGATT
B20: AUCCUUA (DNA:RNA)
RNA: B6 RNA with A26U, A28C, A29U, A30U
DNA 1: CAATCTGAATTCCGGTCTCCC
DNA 2: TGGTGGCTACGACGGGATT

Where a chain is given by its changes, count along the chain named. This is one part of the list.

The assay concerns the target T1, RBFOX1 RRM. The assay can be described thus: EMSA; HiTS-Eq, 1 nM pool, 10 min; buffer printed only for the single-RNA assays: 10 mM Tris pH 7.5, 150 mM NaCl, 3.4 mM EDTA, 0.001% NP-40, 30 C. The settings on record: tags: His6 N-terminal (pET28a); label: 5' 32P. In outline:
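A pool of RNA with 7 randomized nucleotides, 5′-radiolabelled and with DNA-annealed flanks, was equilibrated at 1 nM for 10 min in 50 µL with purified RbFox RRM, wild type or mutant, across increasing protein concentrations. Free RNA was separated by 8% native PAGE, excised, reverse-transcribed, barcoded by PCR and sequenced. Relative association constants were obtained from read-count changes of each RNA species versus the control reaction and normalised to the cognate motif.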
In general terms: Mobility shift assays separate free from complexed probe on a gel.
As for B1, the binding signal was 0.0124 KA relative to UGCAUGU. As for B2, the figure is 0.0123 KA relative to UGCAUGU. Regarding B3, the binding signal was 0.0073 KA relative to UGCAUGU. Take B4: the binding signal was 0.0135 KA relative to UGCAUGU.

With B5, the binding signal was 0.0141 KA relative to UGCAUGU.

With B6, the binding signal is 0.000431 KA relative to UGCAUGU.

With B7, the binding signal was 0.00818 KA relative to UGCAUGU. As for B8, the figure is 0.00607 KA relative to UGCAUGU; as for B9, 0.0176 KA relative to UGCAUGU.

For B10, the binding signal is 0.017 KA relative to UGCAUGU.

On to B11, for which the binding signal is 0.00443 KA relative to UGCAUGU.

For B12, the binding signal is 0.00416 KA relative to UGCAUGU. As for B13, the figure is 0.00537 KA relative to UGCAUGU. Regarding B14, the binding signal is 0.00146 KA relative to UGCAUGU. Next, B15: 0.0125 KA relative to UGCAUGU; B16: 0.00249 KA relative to UGCAUGU. Next, B17: 0.0118 KA relative to UGCAUGU; B18: 0.00691 KA relative to UGCAUGU.

Take B19: the binding signal was 0.00417 KA relative to UGCAUGU. Next, B20: 0.000331 KA relative to UGCAUGU.
